# Laboratory results: paper PMC12040169 (PLOS Biology, 2025)
# The other results are listed elsewhere or left out.
# Test system: T1, C. trachomatis L2/434/Bu expressing GFP (CTL2-GFP)
# T1 construct: L2/434/Bu GFP intracellular growth in HeLa cells
# Design: species or system HeLa; C. trachomatis total inclusion area by high-content imaging, normalised to DMSO
# Conditions: total inclusion area; 28.5 h, 10 µM; inhibitor
# In short: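 Following bulk GFP and resorufin fluorescence reads, infected cells were fixed, Hoechst-stained and imaged on a high-content platform. Inclusion total area and number per well served as growth proxies; nuclei counts indicated host viability. MICs were derived as for the fluorescence assay.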
row,Structure (SMILES),% of control remaining
1,COc1cc(OC)c(NC(=O)C(C)Oc2ccc(Cl)c(C)c2)cc1Cl (stereo not drawn) [CBK269697],98.1893
2,CCOC(=O)Nc1ccc2c(c1)N(C(=O)CN1CCN(C)CC1)c1ccccc1CC2 [CBK278194C],96.4397
3,CCn1cc(C(=O)Nc2nccs2)c(=O)c2ccc(C)nc21 [CBK307628],111.082
4,O=C(NC1CCNC1)c1ccc(F)cc1 (stereo not drawn) [CBK281632],110.159
5,CSC1CCC(N(C)C(=O)NCCc2cn3cccc(C)c3n2)C1 (stereo not drawn) [CBK305324],111.224
6,Cc1ccc2c(c1)cc(C(=O)N1CCOC(C(=O)N3CCCCCC3)C1)n2C (stereo not drawn) [CBK286032],132.25
7,CCN(CC)CCn1c(=N)n(CC(O)c2ccc(C)cc2)c2ccccc21 (stereo not drawn) [CBK262914C],37.4957
8,COC(=O)c1cccc2c(C)c(C)[nH]c12 [CBK001563],100.352
9,O=C(O)c1ccc(NC(=O)c2ccccc2NC(=O)c2cccc(Br)c2)cc1 [CBK265517],97.4851
10,COc1cc(CNC(=O)NC(=O)C2CCN(C(C)=O)CC2)cc(OC)c1OC [CBK034833],101.203
11,Cc1noc(C)c1NC(=O)c1ccnc2ccccc12 [CBK200302],111.484
12,Cc1cc([N+](=O)[O-])ccc1NC(=O)Cn1cnc2c1c(=O)n(C)c(=O)n2C [CBK263162],109.197
13,O=C(c1ccco1)N1CCN(c2ccc(-c3cccc4cccnc34)cn2)CC1 [CBK037640],100.506
14,NC(=O)c1cc(C2CCCN(CC(=O)NCc3cccs3)C2)n[nH]1 (stereo not drawn) [CBK305361],57.017
15,CC(Cc1ccccn1)NC(=O)Cn1ccnc1 (stereo not drawn) [CBK282069],95.3788
16,O=c1[nH]c2ncc(-c3ccncc3)nc2n1CC1CC1 [CBK064539],145.004
17,O=C(c1ccncc1)N1CCc2cc(-c3csc(C4CC4)n3)ccc21 [CBK288618],100.659
18,CCOc1cc(/C=N/Nc2nnc(C)n2N)ccc1O [CBK027460],11.5161
19,O=C1NCCNC(=O)C2(CCCCOc3ccccc31)CCNCC2 [CBK292074],69.643
20,O=S1(=O)CCC(Sc2nncc3ccccc23)C1 (stereo not drawn) [CBK021586],85.6694
21,CCC(c1ccc2c(c1)CCO2)N1CCN(Cc2nc(C)no2)CC1 (stereo not drawn) [CBK304237],51.3914
22,COCc1nc(C)c(C(=O)NC2CCCN(c3ccn(C)n3)C2=O)s1 (stereo not drawn) [CBK306497],60.17
23,Cc1cc(C)nc(N(C#N)CC(=O)N2c3ccccc3CCc3ccccc32)n1 [CBK266509],91.7198
24,COc1ccccc1N1CCN(C(=O)Nc2ccc(Cl)cc2)CC1 [CBK155597],101.207
25,O=C(CCCN1C(=O)c2cccc3cccc(c23)C1=O)Nc1cccnc1 [CBK262560],97.4935
26,CC(C)C(NC(=O)N1c2ccccc2NC(=O)C1C(C)C)C(=O)O (stereo not drawn) [CBK286670],67.033

row,Structure (SMILES),% of control remaining
1,COc1ccc(-c2nn(-c3ccccc3)cc2/C=C2/SC(=S)N(Cc3ccccc3)C2=O)c(C)c1 [CBK265107],106.168
2,O=C(NCc1cccnc1)c1ccccc1NS(=O)(=O)c1ccc(F)cc1 [CBK269754],79.661
3,Cc1cc(NS(=O)(=O)c2ccc(Oc3ccc(-c4ccccc4)cc3)nc2)no1 [CBK295343],94.9103
4,CC(=O)Nc1ccc(-c2ccc(C(=O)NCc3ccc(S(C)(=O)=O)cc3)cn2)cc1 [CBK158860],64.6165
5,O=C1CCCN1CCOc1nccnc1-c1ccsc1 [CBK106759],89.5188
6,CCS(=O)(=O)N1CCCCCC1c1nn(C)cc1Cl (stereo not drawn) [CBK284672],95.4392
7,O=C(O)Cc1ccc(NC(=O)c2cccnc2C(=O)O)cc1 [CBK267397],89.1915
8,CCNC(=S)N[C@H]1CC[C@@]2(Cc3ccc(OC)cc3)CCN(C)[C@H]2C1 [CBK004257],109.789
9,CCC(C)(C)c1ccc(S(=O)(=O)N2CCN(Cc3ccc(C(C)=O)cc3)CC2)cc1 [CBK062826],76.5195
10,O=C(CCn1c(C(F)(F)F)cc2cccnc21)N1CCOCC1 [CBK284869],114.239
11,O=C(NNCc1ccccc1)c1cc(Br)cnc1N1CCN(C(=O)c2ccco2)CC1 [CBK076460],78.536
12,Cn1ccnc1C(NC(=O)Cc1ccc(O)cc1)c1ccccc1 (stereo not drawn) [CBK283723],86.3763
13,COC(=O)CCCC(=O)n1ccn(CCc2cccs2)c1=O [CBK106612],96.7078
14,O=C(O)CSc1nc2ccc(NC(=O)c3ccccc3Cl)cc2s1 [CBK299791],96.8243
15,COc1cccc(C2(NC(=O)c3c(C)noc3C)CCCC2)c1 [CBK283659],79.3512
16,C/C(=N\NC(=O)Cc1ccc([N+](=O)[O-])cc1[N+](=O)[O-])c1ccccc1O [CBK261175],79.7298
17,CCc1cc(CNS(=O)(=O)c2cc(C)ccc2F)on1 [CBK283064],70.3328
18,CCc1nc2ccc(C(=O)N3CCC(O)(Cc4ccccc4)CC3)cn2c1N(CC)C(=O)CCC1CCCC1 [CBK146854],100.397
19,CN1CCN(C(=O)c2ccc(-c3cncc(-c4ccc(O)cc4)n3)c(F)c2)CC1 [CBK126752],106.079
20,COC(=O)c1cc(C#N)c(=O)n(CC(O)COc2cccc(Br)c2)c1 (stereo not drawn) [CBK304984],7.605
21,CCC(O)CNS(=O)(=O)c1ccc(OC(F)(F)F)cc1 (stereo not drawn) [CBK043557],55.2057
22,Cn1nc(NC(=O)COCC(=O)O)c2ccccc21 [CBK057114],82.2301
23,NS(=O)(=O)c1ccc(NC(=S)NC(=O)c2ccc(Cl)cc2Cl)cc1 [CBK266265],82.3902
24,O=C(O)CN(c1ccccc1[N+](=O)[O-])S(=O)(=O)c1ccccc1 [CBK263158],105.75
25,CC(=O)NC1(c2ccccc2F)CCN(CC(=O)N(C)C)CC1 [CBK283618],94.0071
